# The other results are listed elsewhere or left out.
# B1: B160 (Bifidobacterium sp) (protein)
# chain: MVSHNKRIVAALAAVAAMGIGLAGCGGSDTAGDTKSGSDGGVVNITYMHRLPDSEGMTLVNDIVAKWNKEHPNIQVKATKFDGNAADMIKKLETDVKAGNAPDLAQVGYAEVPEVFTKGLLQDVTDEAAKYKDDFASGPFALMQVDGKTYGLPQDTGPLTYFYNAAEFEKLGITVPKTADELIETAKKTAAQGKYIMTFTPDEAMMMMSGQAGASGPWYKVDGNSWVVNTQTKGSKAVADVYQQLIDNKAALTNPRWDASFDNSIQSGQLIGTVAAAWEAPLFIDSAGGTGAGEWKVTQLGDWFGNGTKTGANGGSGVAVLKGSKHPAEAMEFLDWFNTQVDDLVSQGLVVAATTADAKTPQKWSDYFSGQDVMAEFKTANDNMGDFTYMPGFSAVGAAMKQTAAKAADGSAKVSDVFDTAQKTSVDTLKNLGLSVKE
# Legend:
# Experiment in all cases: glycan array binding signal (z-score within array); higher = stronger binding
# Settings in all cases: glycan notation: IUPAC condensed, linker removed
# [1] = molecular target: Fuc(a1-2)Gal(b1-4)[Fuc(a1-3)]GlcNAc(b1-2)Man(a1-3)[Fuc(a1-2)Gal(b1-4)[Fuc(a1-3)]GlcNAc(b1-2)Man(a1-6)]Man(b1-4)GlcNAc(b1-4)[Fuc(a1-6)]GlcNAc
# Outline: (§1)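 The binding signal is a Z-score computed within each array and averaged over linkers. Arrays of the same protein sequence at different concentrations or buffers were also averaged together. Data originate from 3228 arrays in the Consortium for Functional Glycomics database, kept only where the protein sequence was available.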
# [2] = molecular target: Fuc(a1-2)Gal(b1-4)[Fuc(a1-3)]GlcNAc(b1-2)[Fuc(a1-2)Gal(b1-4)[Fuc(a1-3)]GlcNAc(b1-4)]Man(a1-3)[Fuc(a1-2)Gal(b1-4)[Fuc(a1-3)]GlcNAc(b1-2)Man(a1-6)]Man(b1-4)GlcNAc(b1-4)GlcNAc
# Outline: as §1
# [3] = molecular target: Fuc(a1-2)Gal(b1-4)[Fuc(a1-3)]GlcNAc(b1-3)Gal(b1-4)[Fuc(a1-3)]GlcNAc
# Outline: as §1
# [4] = molecular target: Fuc(a1-2)Gal(b1-4)[Fuc(a1-3)]GlcNAc(b1-3)Gal(b1-4)[Fuc(a1-3)]GlcNAc(b1-3)Gal(b1-4)[Fuc(a1-3)]GlcNAc
# Outline: as §1
# [5] = molecular target: Fuc(a1-2)Gal(b1-4)[Fuc(a1-3)]GlcNAc(b1-3)GalNAc
# Outline: as §1
# [6] = molecular target: Fuc(a1-2)Gal(b1-4)[Fuc(a1-3)]GlcNAc(b1-3)[Neu5Ac(a2-6)Gal(b1-4)GlcNAc(b1-6)]Gal(b1-4)Glc
# Outline: as §1
# [7] = molecular target: Fuc(a1-2)Gal3S(b1-4)GlcNAc
# Outline: as §1
# [8] = molecular target: Fuc(a1-2)Gal6S(b1-3)GlcNAc
# Outline: as §1
# [9] = molecular target: Fuc(a1-2)Gal6S(b1-3)GlcNAc6S
# Outline: as §1
# Fuc(a1-2)Gal6S(b1-4)Glc = molecular target: Fuc(a1-2)Gal6S(b1-4)Glc
# Outline: as §1
# [10] = molecular target: Fuc(a1-2)Gal6S(b1-4)Glc6S
# Outline: as §1
# Fuc(a1-2)[Gal(a1-3)]Gal = molecular target: Fuc(a1-2)[Gal(a1-3)]Gal
# Outline: as §1
# [11] = molecular target: Fuc(a1-2)[Gal(a1-3)]Gal(b1-3)GalNAc
# Outline: as §1
# [12] = molecular target: Fuc(a1-2)[Gal(a1-3)]Gal(b1-3)GalNAc(b1-3)Gal(a1-4)Gal(b1-4)Glc
# Outline: as §1
# [13] = molecular target: Fuc(a1-2)[Gal(a1-3)]Gal(b1-3)GlcNAc
# Outline: as §1
# [14] = molecular target: Fuc(a1-2)[Gal(a1-3)]Gal(b1-3)GlcNAc(b1-2)Man(a1-3)[Fuc(a1-2)[Gal(a1-3)]Gal(b1-3)GlcNAc(b1-2)Man(a1-6)]Man(b1-4)GlcNAc(b1-4)GlcNAc
# Outline: as §1
# [15] = molecular target: Fuc(a1-2)[Gal(a1-3)]Gal(b1-3)GlcNAc(b1-2)Man(a1-3)[Fuc(a1-2)[Gal(a1-3)]Gal(b1-3)GlcNAc(b1-2)Man(a1-6)]Man(b1-4)GlcNAc(b1-4)[Fuc(a1-6)]GlcNAc
# Outline: as §1
# [16] = molecular target: Fuc(a1-2)[Gal(a1-3)]Gal(b1-3)GlcNAc(b1-3)GalNAc
# Outline: as §1
# [17] = molecular target: Fuc(a1-2)[Gal(a1-3)]Gal(b1-3)GlcNAc(b1-6)GalNAc
# Outline: as §1
# [18] = molecular target: Fuc(a1-2)[Gal(a1-3)]Gal(b1-4)Glc
# Outline: as §1
# [19] = molecular target: Fuc(a1-2)[Gal(a1-3)]Gal(b1-4)GlcNAc
# Outline: as §1
# [20] = molecular target: Fuc(a1-2)[Gal(a1-3)]Gal(b1-4)GlcNAc(b1-2)Man
# Outline: as §1
# [21] = molecular target: Fuc(a1-2)[Gal(a1-3)]Gal(b1-4)GlcNAc(b1-2)Man(a1-3)[Fuc(a1-2)[Gal(a1-3)]Gal(b1-4)GlcNAc(b1-2)Man(a1-6)]Man(b1-4)GlcNAc(b1-4)GlcNAc
# Outline: as §1
# [22] = molecular target: Fuc(a1-2)[Gal(a1-3)]Gal(b1-4)GlcNAc(b1-2)Man(a1-3)[Fuc(a1-2)[Gal(a1-3)]Gal(b1-4)GlcNAc(b1-2)Man(a1-6)]Man(b1-4)GlcNAc(b1-4)[Fuc(a1-6)]GlcNAc
# Outline: as §1
# [23] = molecular target: Fuc(a1-2)[Gal(a1-3)]Gal(b1-4)GlcNAc(b1-3)GalNAc
# Outline: as §1
# [24] = molecular target: Fuc(a1-2)[Gal(a1-3)]Gal(b1-4)GlcNAc(b1-3)[Fuc(a1-2)[Gal(a1-3)]Gal(b1-4)GlcNAc(b1-6)]GalNAc
# Outline: as §1
# [25] = molecular target: Fuc(a1-2)[Gal(a1-3)]Gal(b1-4)GlcNAc(b1-6)GalNAc
# Outline: as §1
# [26] = molecular target: Fuc(a1-2)[Gal(a1-3)]Gal(b1-4)[Fuc(a1-3)]Glc
# Outline: as §1
# [27] = molecular target: Fuc(a1-2)[Gal(a1-3)]Gal(b1-4)[Fuc(a1-3)]GlcNAc
# Outline: as §1
# [28] = molecular target: Fuc(a1-2)[Gal(a1-3)]Gal(b1-4)[Fuc(a1-3)]GlcNAc(b1-3)GalNAc
# Outline: as §1
# [29] = molecular target: Fuc(a1-2)[Gal(a1-4)]Gal(b1-4)GlcNAc
# Outline: as §1
# [30] = molecular target: Fuc(a1-2)[GalNAc(a1-3)]Gal
# Outline: as §1
# [31] = molecular target: Fuc(a1-2)[GalNAc(a1-3)]Gal(b1-3)GalNAc(a1-3)[Fuc(a1-2)]Gal(b1-4)GlcNAc
# Outline: as §1
# [32] = molecular target: Fuc(a1-2)[GalNAc(a1-3)]Gal(b1-3)GalNAc(b1-3)Gal(a1-4)Gal(b1-4)Glc
# Outline: as §1
# [33] = molecular target: Fuc(a1-2)[GalNAc(a1-3)]Gal(b1-3)GlcNAc
# Outline: as §1
# [34] = molecular target: Fuc(a1-2)[GalNAc(a1-3)]Gal(b1-3)GlcNAc(b1-2)Man(a1-3)[Fuc(a1-2)[GalNAc(a1-3)]Gal(b1-3)GlcNAc(b1-2)Man(a1-6)]Man(b1-4)GlcNAc(b1-4)GlcNAc
# Outline: as §1
# [35] = molecular target: Fuc(a1-2)[GalNAc(a1-3)]Gal(b1-3)GlcNAc(b1-2)Man(a1-3)[Fuc(a1-2)[GalNAc(a1-3)]Gal(b1-3)GlcNAc(b1-2)Man(a1-6)]Man(b1-4)GlcNAc(b1-4)[Fuc(a1-6)]GlcNAc
# Outline: as §1
# [36] = molecular target: Fuc(a1-2)[GalNAc(a1-3)]Gal(b1-3)GlcNAc(b1-3)GalNAc
# Outline: as §1
binder,measurement,setting,value
B1,glycan array binding signal (z-score),[1],-0.142
same,glycan array binding signal (z-score),[2],-0.134
same,glycan array binding signal (z-score),[3],-0.185
same,glycan array binding signal (z-score),[4],-0.107
same,glycan array binding signal (z-score),[5],-0.102
same,glycan array binding signal (z-score),[6],-0.161
same,glycan array binding signal (z-score),[7],-0.182
same,glycan array binding signal (z-score),[8],-0.2
same,glycan array binding signal (z-score),[9],-0.145
same,glycan array binding signal (z-score),Fuc(a1-2)Gal6S(b1-4)Glc,-0.15
same,glycan array binding signal (z-score),[10],-0.157
same,glycan array binding signal (z-score),Fuc(a1-2)[Gal(a1-3)]Gal,-0.174
same,glycan array binding signal (z-score),[11],-0.172
same,glycan array binding signal (z-score),[12],-0.155
same,glycan array binding signal (z-score),[13],-0.163
same,glycan array binding signal (z-score),[14],-0.123
same,glycan array binding signal (z-score),[15],-0.129
same,glycan array binding signal (z-score),[16],-0.141
same,glycan array binding signal (z-score),[17],-0.15
same,glycan array binding signal (z-score),[18],-0.163
same,glycan array binding signal (z-score),[19],-0.161
same,glycan array binding signal (z-score),[20],-0.161
same,glycan array binding signal (z-score),[21],-0.169
same,glycan array binding signal (z-score),[22],-0.092
same,glycan array binding signal (z-score),[23],-0.168
same,glycan array binding signal (z-score),[24],-0.136
same,glycan array binding signal (z-score),[25],-0.163
same,glycan array binding signal (z-score),[26],-0.153
same,glycan array binding signal (z-score),[27],-0.155
same,glycan array binding signal (z-score),[28],-0.156
same,glycan array binding signal (z-score),[29],-0.15
same,glycan array binding signal (z-score),[30],-0.168
same,glycan array binding signal (z-score),[31],-0.18
same,glycan array binding signal (z-score),[32],-0.174
same,glycan array binding signal (z-score),[33],-0.167
same,glycan array binding signal (z-score),[34],-0.159
same,glycan array binding signal (z-score),[35],-0.126
same,glycan array binding signal (z-score),[36],-0.144

# — the supplement of paper PMC8728848
